Hit rate of the full screen: of about 39,000 compounds, about 220 (0.56%) showed activity. The list shows a part of the results.
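Further: static incubation at 37 °C against the wild-type strain, values averaged over two biological replicates.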

The test deals with Escherichia coli K-12 BW25113. The test is described as follows: relative growth (OD600 normalised to plate interquartile mean) (fraction); higher = less growth inhibition, active = 0.2 or less. Conditions: 50 µM; LB; incubation time: overnight (16-24 h).
For the compound `CC(C)NC(=O)N(C)C[C@@H]1Oc2ncc(-c3ccc(C(=O)N(C)C)cc3)cc2C(=O)N([C@H](C)CO)C[C@@H]1C`, the relative growth is inactive: 0.988.

Consider `NCCC1=CSC2=NCCN12`, for which the relative growth was inactive: 1.05. As for `CC(C)(N)c1ccccc1Br`, the relative growth was inactive: 1. In the case of `O=C(C[C@@H]1CC[C@H]2[C@@H](COC[C@H](O)CN2S(=O)(=O)c2cccc(Cl)c2)O1)NCCCN1CCOCC1`, the relative growth was inactive: 0.985. For the compound `CC(C)[C@@H](CO)N1C(=O)[C@@H]2[C@H]3C(=O)O[C@H](C)CC/C=C\[C@H]3O[C@]23C=CCN(Cn2nnc4ccccc42)C(=O)[C@@H]13`, the relative growth is inactive: 1. As to `COCC(=O)N1CCCc2c(C#N)nn(C)c2C1`, the relative growth is inactive: 1.

As for `CC(C)NC(=O)Nc1cccc2c1O[C@@H](CN(C)S(=O)(=O)c1cn(C)cn1)[C@@H](C)CN([C@H](C)CO)C2=O`, the relative growth is inactive: 0.972. In the case of `COCC(=O)N1[C@H](C(=O)N2CCOCC2)[C@@H](CO)[C@@H]2Cn3c(ccc(C4=CCCCC4)c3=O)[C@@H]21` it was inactive: 1.04. Turning to `CC(C)NC(=O)Nc1ccc2c(c1)CC(=O)N([C@@H](C)CO)C[C@H](C)[C@H](CN(C)C(=O)Nc1ccc3c(c1)OCO3)O2`, the relative growth is inactive: 1.02. In the case of `C[C@@H]1CN([C@@H](C)CO)C(=O)c2cc(NC(=O)C3CCCCC3)ccc2O[C@H]1CN(C)C(=O)Nc1cccc2ccccc12` it was inactive: 1.02; in that of `CCS(=O)(=O)N(C)C[C@@H]1OCc2ccccc2-c2c(n(C)c3ccccc23)C(=O)N([C@@H](C)CO)C[C@@H]1C`, inactive: 0.999; in that of `Cc1ccc(-c2ccc3c(c2)O[C@@H](CN(C)C(=O)NC(C)C)[C@@H](C)CN([C@@H](C)CO)S3(=O)=O)cc1`, inactive: 0.995. The same measure for `CO[C@H]1CN(C)C(=O)c2ccc(NC(=O)C3CCOCC3)cc2OC[C@H](C)N(Cc2cccnc2)C[C@H]1C`: inactive: 0.987. The same measure for `C[C@H](CO)N1C[C@H](C)[C@@H](CN(C)C(=O)Cc2ccccn2)Oc2ncc(C#CC3CCCC3)cc2C1=O`: inactive: 0.999; for `Cc1noc(C)c1NC(=O)N(C)C[C@@H]1OCCCC[C@H](C)Oc2ccc(NS(=O)(=O)c3ccc(Cl)cc3)cc2C(=O)N([C@@H](C)CO)C[C@H]1C`: inactive: 1.01; for `O=C(C[C@@H]1CC[C@@H]2[C@H](COC[C@H](O)CN2S(=O)(=O)c2ccc(Cl)cc2)O1)NCC1CCCCC1`: inactive: 1.02. With `C[C@@H]1CN([C@@H](C)CO)C(=O)c2cccc(NS(=O)(=O)c3cn(C)cn3)c2O[C@H]1CN(C)Cc1ccc(C(=O)O)cc1`, the relative growth is inactive: 1.

Consider `C[C@@H]1CN([C@H](C)CO)C(=O)c2cccc(NC(=O)Nc3ccc(F)cc3)c2O[C@H]1CN(C)C(=O)Nc1ccc(C(F)(F)F)cc1`, for which the relative growth is inactive: 1.

Take `COc1ccc(S(=O)(=O)N(C)C[C@@H]2Oc3ccc(NC(=O)Cn4cnnn4)cc3CC(=O)N([C@@H](C)CO)C[C@@H]2C)cc1`: the relative growth is inactive: 0.989.

Take `C[C@@H]1CN([C@@H](C)CO)C(=O)c2cc(NS(C)(=O)=O)ccc2O[C@@H](C)CCCCO[C@@H]1CN(C)C(=O)c1ccncc1`: the relative growth is inactive: 0.986. In the case of `COc1cc(CC=Cc2ccccc2)c(OC)cc1O` it was inactive: 1.18; in that of `C[C@@H]1CCCCO[C@H](CN(C)Cc2ccc(C(F)(F)F)cc2)[C@@H](C)CN([C@@H](C)CO)C(=O)c2cc(NC(=O)c3ccccc3)ccc2O1`, inactive: 0.956. On to `Cl.c1ccc2c(c1)CCCC2C1=NCCN1` (stereo unspecified), for which the relative growth is inactive: 1.03. In the case of `Cc1noc(C)c1S(=O)(=O)N(C)C[C@H]1Oc2ccc(NC(=O)Nc3ccccc3)cc2CC(=O)N([C@H](C)CO)C[C@@H]1C`, the relative growth was inactive: 1. The same measure for `CC(=O)N[C@@H](CCC(=O)O)C(=O)O`: inactive: 0.989; for `C[C@H]1CCCCO[C@H](CN(C)C(=O)CCC(F)(F)F)[C@@H](C)CN([C@@H](C)CO)C(=O)c2cc(NC(=O)NC3CCCCC3)ccc2O1`: inactive: 1.01. As to `COc1cccc(C#Cc2ccc3c(c2)O[C@@H](CN(C)C(=O)CN2CCOCC2)[C@@H](C)CN([C@@H](C)CO)S3(=O)=O)c1`, the relative growth was inactive: 0.95.

For `COc1ccc(S(=O)(=O)Nc2ccc3c(c2)C(=O)N([C@H](C)CO)C[C@H](C)[C@@H](CN(C)C(=O)Nc2ccccc2)OCCCC[C@@H](C)O3)cc1`, the relative growth is inactive: 1.03.

On to `C[C@@H]1CCCCO[C@@H](CN(C)C(=O)NC2CCCCC2)[C@@H](C)CN([C@H](C)CO)C(=O)c2cc(NC(=O)Nc3ccc(F)cc3)ccc2O1`, for which the relative growth is inactive: 0.979. In the case of `C[C@@H]1CN([C@H](C)CO)C(=O)c2cc(NS(C)(=O)=O)ccc2O[C@@H]1CN(C)S(C)(=O)=O` it was inactive: 0.992.

Regarding `C[C@@H]1CCCCO[C@@H](CN(C)S(C)(=O)=O)[C@@H](C)CN([C@H](C)CO)C(=O)c2cc(NC(=O)CCCN(C)C)ccc2O1`, the relative growth was inactive: 0.977.

As to `Cn1nc(CNc2ncccn2)c2c1CNCC2`, the relative growth is inactive: 1.05.

Take `C[C@H](CO)N1C[C@H](C)[C@H](CN(C)Cc2cccc(C(=O)O)c2)Oc2ncc(C#CCN(C)C)cc2C1=O`: the relative growth is inactive: 0.981. For the compound `CS(=O)(=O)N1CC[C@]2(COCc3cnc(N4CCOCC4)nc32)C1`, the relative growth is inactive: 1.04.

`CNC[C@@H]1OCCCC[C@@H](C)Oc2ccc(NC(=O)Nc3ccc(C(F)(F)F)cc3)cc2C(=O)N([C@@H](C)CO)C[C@@H]1C`: the relative growth is inactive: 0.984. Turning to `C=CCOc1ccc(CNn2nnnc2N)cc1`, the relative growth was inactive: 0.984. In the case of `Cc1noc(C)c1S(=O)(=O)N(C)C[C@@H]1Oc2ccc(NC(=O)NC3CCCCC3)cc2CC(=O)N([C@H](C)CO)C[C@H]1C` it was inactive: 1.01; in that of `CC(=O)N1CCn2c(-c3cnn(C)c3)cnc2C12CCN(S(=O)(=O)C1CC1)CC2`, inactive: 0.981; in that of `COCC#Cc1cnc2c(c1)C(=O)N([C@H](C)CO)C[C@@H](C)[C@H](CN(C)C(=O)Nc1ccc(OC)cc1)O2`, inactive: 1.01.

`C[C@H]1CN([C@@H](C)CO)C(=O)Cc2cc(NC(=O)C3CC3)ccc2O[C@@H]1CN(C)Cc1ccc(Oc2ccccc2)cc1`: the relative growth was inactive: 0.949. The same measure for `Cc1ccc(S(=O)(=O)N(C)C[C@H]2Oc3ncc(-c4ccncc4)cc3C(=O)N([C@@H](C)CO)C[C@H]2C)cc1`: inactive: 0.957.
